Results as given in publication PMC4336329 (PLoS ONE, 2015).
The campaign covered roughly 310,000 compounds. About 2,200 (0.71%) showed an effect of 50% or more. The effect is printed as a negative number. The list shows a part of the results.

Biological target: human ether-à-go-go-related gene (hERG) potassium channel (human, UniProt Q12809)
Assay: primary screen, population patch clamp on CHO cells stably expressing hERG

Sequence of human ether-à-go-go-related gene (hERG) potassium channel (Q12809 whole entry, looked up): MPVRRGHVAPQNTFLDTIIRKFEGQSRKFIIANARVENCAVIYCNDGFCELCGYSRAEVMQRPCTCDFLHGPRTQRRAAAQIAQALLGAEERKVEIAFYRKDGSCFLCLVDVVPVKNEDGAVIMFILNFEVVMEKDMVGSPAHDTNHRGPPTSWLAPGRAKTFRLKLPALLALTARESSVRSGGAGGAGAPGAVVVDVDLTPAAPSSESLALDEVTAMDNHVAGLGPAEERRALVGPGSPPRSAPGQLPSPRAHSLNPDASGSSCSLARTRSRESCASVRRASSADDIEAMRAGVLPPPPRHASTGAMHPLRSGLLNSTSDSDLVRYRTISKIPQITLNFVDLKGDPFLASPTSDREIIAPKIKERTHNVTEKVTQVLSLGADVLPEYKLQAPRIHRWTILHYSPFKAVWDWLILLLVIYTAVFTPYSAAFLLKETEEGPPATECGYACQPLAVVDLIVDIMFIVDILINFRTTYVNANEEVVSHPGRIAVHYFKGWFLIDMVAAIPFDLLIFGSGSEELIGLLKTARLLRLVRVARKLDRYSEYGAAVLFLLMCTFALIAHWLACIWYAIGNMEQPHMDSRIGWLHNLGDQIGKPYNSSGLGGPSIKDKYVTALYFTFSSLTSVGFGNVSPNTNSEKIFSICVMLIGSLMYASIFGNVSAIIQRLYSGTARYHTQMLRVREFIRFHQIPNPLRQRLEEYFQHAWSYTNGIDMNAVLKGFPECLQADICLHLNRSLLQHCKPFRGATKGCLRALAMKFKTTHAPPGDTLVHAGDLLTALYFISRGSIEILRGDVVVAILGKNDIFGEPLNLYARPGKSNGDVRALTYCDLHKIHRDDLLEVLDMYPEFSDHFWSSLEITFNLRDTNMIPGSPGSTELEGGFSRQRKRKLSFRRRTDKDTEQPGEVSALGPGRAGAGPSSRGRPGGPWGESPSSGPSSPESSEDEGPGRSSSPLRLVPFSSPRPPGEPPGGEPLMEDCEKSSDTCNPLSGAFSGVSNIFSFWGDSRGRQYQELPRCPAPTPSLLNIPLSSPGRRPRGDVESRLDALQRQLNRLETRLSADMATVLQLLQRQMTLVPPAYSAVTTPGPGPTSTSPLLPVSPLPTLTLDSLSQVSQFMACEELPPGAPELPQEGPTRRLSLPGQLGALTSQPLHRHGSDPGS

Going from `CCOC(=O)C1CCN(c2c(Nc3ccc4c(c3)OCCO4)c(=O)c2=O)CC1` to `CCc1cccc(NC(=O)c2ccc(CNc3c(N4CCCC4)c(=O)c3=O)cc2)c1`, the “hERG current change (%, negative = inhibition) at 1uM” value rises from 9.58% to 12.4%.

First: Cc1cc(/C=C2\SC(=Nc3ccccc3)NC2=O)c(C)n1-c1ccc(S(N)(=O)=O)cc1
Second: CN(C)c1ccc(-n2cccc2/C=C2/SC(=Nc3ccc(F)cc3)NC2=O)cc1
The “hERG current change (%, negative = inhibition) at 1uM” value of the first is higher: 11.8% for the first, 9.67% for the second.

First: CCCOP(=O)(OCCC)c1c([N+](=O)[O-])cc(C(F)(F)F)cc1[N+](=O)[O-]
Second: CCOP(=O)(OCC)C(NC(=O)c1cccs1)C(F)(F)F (stereo not shown)
The “hERG current change (%, negative = inhibition) at 1uM” value of the first is lower: 4.47% for the first, 13% for the second.

Going from `CC(CCc1ccccc1)NC(=O)C1CCN(S(=O)(=O)N2CCOCC2)CC1` (stereo not shown) to `CCCS(=O)(=O)N1CCN(C(=O)c2ccco2)CC1`, the “hERG current change (%, negative = inhibition) at 1uM” value rises from 1.82% to 23.7%.

Going from `CC(OC(=O)CCCSc1nc2ccccc2s1)C(=O)NC(N)=O` (stereo not shown) to `CCc1cc2c(Sc3nc4ccccc4s3)ncnc2s1`, the “hERG current change (%, negative = inhibition) at 1uM” value rises from 9.9% to 12.7%.

First: CN(C)NC(=S)Nc1ccc(Cl)cc1
Second: S=C(Nc1ccc2c(c1)OCO2)Nc1ccccc1Cl
The “hERG current change (%, negative = inhibition) at 1uM” value of the first is lower: 1.6% for the first, 11.4% for the second.

Compared with `CC1(c2ccc(OCC(N)=O)cc2)NC(=O)NC1=O` (stereo not shown), `NC(=O)c1ncc(C(F)(F)F)cc1Oc1ccc(F)cc1` is lower in “hERG current change (%, negative = inhibition) at 1uM” value: 12.1% for the first, 9.89% for the second.

First: Cn1c(=O)c2c(ncn2CCC(=O)N/N=C/c2ccncc2)n(C)c1=O
Second: CCC1(c2ccccc2)NC(=O)N(CC(=O)NCc2ccncc2)C1=O (stereo not shown)
The “hERG current change (%, negative = inhibition) at 1uM” value of the first is lower: 10.2% for the first, 18.8% for the second.

Compared with `COc1ccc(OC)c(N(CC(=O)NCc2ccccc2)S(=O)(=O)c2ccc(OC)c(OC)c2)c1`, `COc1cc(C(=O)NCC(=O)NC(C)CCc2ccccc2)cc(OC)c1OC` (stereo not shown) is lower in “hERG current change (%, negative = inhibition) at 1uM” value: 20.6% for the first, 2.59% for the second.

Going from `CSC1=C(C#N)C(c2ccc(Cl)cc2)C2=C(CC(C)(C)CC2=O)N1` (stereo not shown) to `COc1ccc([C@H]2CC(=O)C=C(c3ccccc3C(F)(F)F)C2)cc1`, the “hERG current change (%, negative = inhibition) at 1uM” value rises from -6.41% to 10.1%.

Going from `COc1cccc(C(=O)/C=C/c2ccc(SC)cc2)c1` to `COc1cccc(C(=O)NCCSc2ccc(C)cc2)c1`, the “hERG current change (%, negative = inhibition) at 1uM” value falls from 1.35% to 0.173%.

First: CCOc1ccc(NC(=O)CN(C)C(=O)c2cc(C)oc2C)cc1OCC
Second: CCN(CC)C(=O)c1[nH]cnc1C(=O)Nc1ccc(C)cc1
The “hERG current change (%, negative = inhibition) at 1uM” value of the first is lower: 6.57% for the first, 16.5% for the second.

First: CCOC(=O)c1sc(NC(=O)CN2CCN(c3ccc(OC)cc3)CC2)nc1C
Second: CCOC(=O)c1c(-c2ccc(C)cc2)csc1NC(=O)c1ccc(N2C(=O)CCC2=O)cc1
The “hERG current change (%, negative = inhibition) at 1uM” value of the first is lower: 2.51% for the first, 2.61% for the second.

First: Cc1ccc(S(=O)(=O)N(CC(=O)NCc2ccncc2)C2CCCCC2)cc1
Second: CCN(CC)S(=O)(=O)c1ccc(NC(=O)C2CCCN(C(=O)c3ccc(Cl)cc3)C2)cc1 (stereo not shown)
The “hERG current change (%, negative = inhibition) at 1uM” value of the first is lower: -25.2% for the first, 8.79% for the second.

Compared with `Cc1cccc(NC(=O)CS(=O)(=O)c2cn(C)c3ccccc23)c1C`, `CC(C)NS(=O)(=O)c1ccc(OCC(=O)Nc2cccc3ccccc23)cc1` is higher in “hERG current change (%, negative = inhibition) at 1uM” value: 1.32% for the first, 6.78% for the second.

First: CCc1ccccc1NC(=O)C1C2C=CC(O2)C1C(=O)O (stereo not shown)
Second: CCc1sc(C(=O)NCc2ccccc2)cc1C
The “hERG current change (%, negative = inhibition) at 1uM” value of the first is higher: 14.9% for the first, 10.7% for the second.

First: Cc1ccc(SCC(=O)Nc2ccc3c(c2)C(=O)N(C)C3=O)cc1
Second: COCc1nnc(NC(=O)CSc2ccc(C)cc2)s1
The “hERG current change (%, negative = inhibition) at 1uM” value of the first is higher: 11.9% for the first, 11.7% for the second.

First: Nc1c(C(=O)Nc2cccc(Cl)c2Cl)sc2nc(-c3cccnc3)ccc12
Second: N#Cc1nc(-c2cccc(Cl)c2)oc1NCc1cccnc1
The “hERG current change (%, negative = inhibition) at 1uM” value of the first is higher: 2.9% for the first, -3.83% for the second.

Going from `COc1cccc(NC(=O)Nc2nnc(CC(=O)Nc3ccccc3)s2)c1` to `COc1cccc(C(=O)NC(=S)Nc2ccc3oc(=O)ccc3c2)c1`, the “hERG current change (%, negative = inhibition) at 1uM” value falls from 6.56% to 3.99%.

Going from `Cc1cc(C)cc(NC(=O)Nc2ccccc2N2CCCCC2)c1` to `COC(=O)c1cn(C(=O)c2cc(C)cc(C)c2)c2ccccc12`, the “hERG current change (%, negative = inhibition) at 1uM” value rises from 13.8% to 35.2%.

First: C/C(=N\NC(=O)c1nnn(-c2nonc2N)c1CN1CCC(C)CC1)c1cccc(Br)c1
Second: Nc1nonc1-n1nnc(C(=O)N/N=C/c2cc(Br)ccc2O)c1CNc1ccccc1
The “hERG current change (%, negative = inhibition) at 1uM” value of the first is higher: 18% for the first, 13.2% for the second.

Going from `CCC(C)(C)NC(=O)C(c1ccccc1F)N(C(=O)c1ccn[nH]1)c1ccccc1` (stereo not shown) to `COc1ccccc1OCc1ccc(C(=O)N(C)c2ccccc2)o1`, the “hERG current change (%, negative = inhibition) at 1uM” value rises from 3.87% to 12.1%.

First: CCC(C)NC(=O)c1ccccc1-c1ccccc1C(=O)NC(C)CC (stereo not shown)
Second: COc1ccccc1NC(=O)CCc1nc(-c2ccccc2F)no1
The “hERG current change (%, negative = inhibition) at 1uM” value of the first is lower: 4.92% for the first, 9.19% for the second.

Going from `CCOCCCNC(=O)c1c[nH]c2ccc(C)cc2c1=O` to `CCOc1ccc(N2CC(C(=O)NCCc3c[nH]c4ccc(C)cc34)CC2=O)cc1` (stereo not shown), the “hERG current change (%, negative = inhibition) at 1uM” value falls from 14% to 2.56%.

First: Cc1ccc(C(=O)/C=C/c2ccc(-c3ccc(C)cc3)o2)cc1
Second: O=C(O)c1ccc(-c2nnc(-c3ccc([N+](=O)[O-])cc3)o2)cc1
The “hERG current change (%, negative = inhibition) at 1uM” value of the first is lower: 4.98% for the first, 15.8% for the second.

Going from `CCn1c(COc2cccc(C)c2)nnc1SCC(=O)NC1CCCC1` to `CCOC(=O)CSc1nnc(CNC(=O)c2ccco2)n1C`, the “hERG current change (%, negative = inhibition) at 1uM” value rises from 11.6% to 11.7%.

Going from `NC(=O)CN(c1ccc(Cl)cc1)S(=O)(=O)c1ccccc1` to `O=C(Nc1ccc(Cl)cc1)C(c1ccccc1)N(CCO)CCO` (stereo not shown), the “hERG current change (%, negative = inhibition) at 1uM” value falls from 3.68% to -0.602%.

First: COc1ccc(-n2ncc3c(NC(C)C)ncnc32)cc1
Second: COc1ccc(C(=O)NC2CCN(C(=S)Nc3ccccc3C)CC2)cc1
The “hERG current change (%, negative = inhibition) at 1uM” value of the first is lower: 7.98% for the first, 9.62% for the second.

First: Cc1ccn2cc(C(=O)NC3CCN(Cc4ccccc4)CC3)nc2c1
Second: O=C(NC(=S)Nc1ccc(CN2CCCCC2)cc1)c1cccc(OCc2ccccc2)c1
The “hERG current change (%, negative = inhibition) at 1uM” value of the first is lower: -10.6% for the first, 5.86% for the second.

First: CC(NC(=O)c1cc(F)c(F)cc1Cl)C1CC2CCC1C2 (stereo not shown)
Second: COc1cc(/C=N/Nc2ccc(Cl)c(C(=O)O)c2)ccc1OCC(=O)N1C(C)CCCC1C (stereo not shown)
The “hERG current change (%, negative = inhibition) at 1uM” value of the first is lower: 10.7% for the first, 11.5% for the second.

Compared with `O=C1NC(=O)N(Cc2ccccc2)C(=O)/C1=C\C=C\c1ccco1`, `COc1ccccc1NC(=S)N(Cc1ccco1)Cc1cc2cc(C)ccc2[nH]c1=O` is lower in “hERG current change (%, negative = inhibition) at 1uM” value: 9.06% for the first, 6.49% for the second.

Going from `Fc1ccc(Cn2c(-c3cscn3)nc3ccccc32)c(Cl)c1` to `COc1cccc(-c2ncc3ccccc3c2COC(=O)c2ccc(F)cc2)c1`, the “hERG current change (%, negative = inhibition) at 1uM” value falls from 15% to 11.9%.

First: Cc1cc(C)nc(-n2nc(C)cc2NC(=O)CN2CCc3ccccc3C2)n1
Second: CC1=CC(c2ccccc2)n2nc(NC(=O)CCCC(=O)O)nc2N1 (stereo not shown)
The “hERG current change (%, negative = inhibition) at 1uM” value of the first is lower: -26.4% for the first, 21.3% for the second.

Compared with `Cc1ccc(-c2nnc3sc(-c4ccncc4)nn23)cc1`, `Cc1ccc(C(=O)N/C(=C/c2cccs2)C(=O)NCCCn2ccnc2)cc1` is lower in “hERG current change (%, negative = inhibition) at 1uM” value: -9.21% for the first, -50% for the second.

Going from `Cc1nn(-c2ccccc2)c(Cl)c1C(=O)Nc1nnc(C2CCCC2)s1` to `O=C1NC(Nc2nc3ccccc3s2)(C(F)(F)F)C(=O)N1C1CCCCC1` (stereo not shown), the “hERG current change (%, negative = inhibition) at 1uM” value falls from 3.92% to -5.08%.

Compared with `CC(OC(=O)c1cccc([N+](=O)[O-])c1)C(=O)N1CCc2ccccc21` (stereo not shown), `Cc1ccc([N+](=O)[O-])cc1NC(=O)CN1CCCCC1` is higher in “hERG current change (%, negative = inhibition) at 1uM” value: -10.2% for the first, 5.47% for the second.

Compared with `Cc1nn(C)cc1/C=C1\CCC/C(=C\c2cn(C)nc2C)C1=O`, `O=C(CSc1ncn[nH]1)Nc1ccc2c(c1)CCC2` is lower in “hERG current change (%, negative = inhibition) at 1uM” value: 13.3% for the first, 0.58% for the second.

Compared with `O=C(O)CC12CC3CC(C1)CC(n1ncc(NCc4ccc5c(c4)OCO5)c(Cl)c1=O)(C3)C2`, `COc1ccc(C(=O)O)cc1NCc1cccnc1` is higher in “hERG current change (%, negative = inhibition) at 1uM” value: 13.4% for the first, 18.4% for the second.

First: C/C(CC(=O)NC(C)(C)C)=N\NC(=O)c1ccccc1N
Second: CNC(=O)c1ccc(Nc2nnc(C)c3ccccc23)cc1
The “hERG current change (%, negative = inhibition) at 1uM” value of the first is lower: 10.5% for the first, 12.1% for the second.

First: CCOCCCNC(=O)c1c(N)n(-c2ccc(S(N)(=O)=O)cc2)c2nc3ccccc3nc12
Second: CC(=O)Nc1ccc(S(=O)(=O)Oc2ccc(/C=C3\SC(N)=NC3=O)cc2)cc1
The “hERG current change (%, negative = inhibition) at 1uM” value of the first is lower: 14.1% for the first, 14.4% for the second.

Going from `O=C(N/N=C/c1ccc(-c2ccc(Cl)c(C(=O)O)c2)o1)c1cc2c(ccc3ccccc32)o1` to `O=C(CN1c2cccc3cccc(c23)S1(=O)=O)Nc1ccc(S(=O)(=O)N2CCOCC2)cc1`, the “hERG current change (%, negative = inhibition) at 1uM” value rises from 13.2% to 13.3%.

Going from `CCOC(=O)C1(Cc2cccc(OC)c2)CCN(Cc2ccon2)CC1` to `COc1cccc(CN2CCCCC2c2cccnc2)c1` (stereo not shown), the “hERG current change (%, negative = inhibition) at 1uM” value falls from 11.3% to 4.38%.

First: CCOc1ccc(C(=O)NCCC(=O)NCCCC(=O)O)cc1
Second: CCC(SC1=NCCS1)C(=O)Nc1ccc(S(N)(=O)=O)cc1 (stereo not shown)
The “hERG current change (%, negative = inhibition) at 1uM” value of the first is higher: 3.78% for the first, -0.444% for the second.

First: N#CC(C#N)=Cc1cccnc1
Second: CC(Oc1ccc(Cl)cc1Cl)c1ccnc(N)n1 (stereo not shown)
The “hERG current change (%, negative = inhibition) at 1uM” value of the first is lower: 7.45% for the first, 16.2% for the second.
